Test results reported in publication PMC3017775.
No constants are given. Whether binding was seen depends on the method and setting. Some entries that bind do so weakly or less than the wild type.

T1: GDEF1 (Gerbera hybrida) (UniProt Q9ZS28)
T1 sequence: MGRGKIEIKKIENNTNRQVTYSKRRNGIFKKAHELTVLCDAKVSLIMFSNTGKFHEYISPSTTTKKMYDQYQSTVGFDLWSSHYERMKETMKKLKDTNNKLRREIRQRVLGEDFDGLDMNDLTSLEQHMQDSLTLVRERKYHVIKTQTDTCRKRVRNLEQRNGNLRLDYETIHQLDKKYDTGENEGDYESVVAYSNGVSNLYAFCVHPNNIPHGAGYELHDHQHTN

T2: GDEF2 (Gerbera hybrida) (UniProt Q9ZS27)
T2 sequence: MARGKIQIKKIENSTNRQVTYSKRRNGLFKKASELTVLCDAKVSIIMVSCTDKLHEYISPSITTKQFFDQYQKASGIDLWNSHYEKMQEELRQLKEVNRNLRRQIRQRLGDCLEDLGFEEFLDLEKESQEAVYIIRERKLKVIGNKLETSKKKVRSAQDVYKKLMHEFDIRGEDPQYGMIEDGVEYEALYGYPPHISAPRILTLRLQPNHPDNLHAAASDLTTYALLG

T3: GGLO1 (Gerbera hybrida) (UniProt Q9ZS26)
T3 sequence: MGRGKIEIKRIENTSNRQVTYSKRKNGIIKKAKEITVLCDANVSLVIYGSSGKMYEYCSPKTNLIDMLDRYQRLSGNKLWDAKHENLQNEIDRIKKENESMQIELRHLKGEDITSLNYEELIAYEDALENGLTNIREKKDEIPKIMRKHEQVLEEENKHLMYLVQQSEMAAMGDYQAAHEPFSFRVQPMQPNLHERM

T4: GSQUA3 (Gerbera hybrida) (UniProt D2T2G1)
T4 sequence: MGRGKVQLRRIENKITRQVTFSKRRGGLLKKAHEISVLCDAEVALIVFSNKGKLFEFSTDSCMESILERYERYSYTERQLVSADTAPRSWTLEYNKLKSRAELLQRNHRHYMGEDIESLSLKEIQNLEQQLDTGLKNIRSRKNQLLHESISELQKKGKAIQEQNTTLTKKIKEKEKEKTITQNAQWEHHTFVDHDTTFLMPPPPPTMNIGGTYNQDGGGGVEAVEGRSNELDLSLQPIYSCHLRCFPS

T5: GSQUA2 (Gerbera hybrida) (UniProt D2T2G0)
T5 sequence: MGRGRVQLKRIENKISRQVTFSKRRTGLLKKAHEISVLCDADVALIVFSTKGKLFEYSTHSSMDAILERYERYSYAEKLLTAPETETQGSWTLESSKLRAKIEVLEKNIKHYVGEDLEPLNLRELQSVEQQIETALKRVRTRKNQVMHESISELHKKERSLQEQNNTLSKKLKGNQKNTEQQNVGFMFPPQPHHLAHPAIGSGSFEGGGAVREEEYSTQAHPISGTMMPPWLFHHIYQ

T6: GGLO1/GDEF1 dimer (Gerbera hybrida) (UniProt Q9ZS28+Q9ZS26)
T6 sequence 1: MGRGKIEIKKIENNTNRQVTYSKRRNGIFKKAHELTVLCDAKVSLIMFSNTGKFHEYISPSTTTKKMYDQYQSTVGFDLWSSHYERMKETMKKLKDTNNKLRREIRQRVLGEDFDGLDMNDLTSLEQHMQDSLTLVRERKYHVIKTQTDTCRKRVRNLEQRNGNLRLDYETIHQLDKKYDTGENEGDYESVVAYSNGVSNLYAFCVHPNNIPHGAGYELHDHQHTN
T6 sequence 2: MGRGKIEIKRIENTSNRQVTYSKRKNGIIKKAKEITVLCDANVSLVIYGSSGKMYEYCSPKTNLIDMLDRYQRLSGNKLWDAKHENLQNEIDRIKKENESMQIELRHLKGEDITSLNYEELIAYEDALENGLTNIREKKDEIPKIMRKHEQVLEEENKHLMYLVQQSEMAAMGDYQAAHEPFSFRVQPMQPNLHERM

T7: GGLO1/GDEF2 dimer (Gerbera hybrida) (UniProt Q9ZS27+Q9ZS26)
T7 sequence 1: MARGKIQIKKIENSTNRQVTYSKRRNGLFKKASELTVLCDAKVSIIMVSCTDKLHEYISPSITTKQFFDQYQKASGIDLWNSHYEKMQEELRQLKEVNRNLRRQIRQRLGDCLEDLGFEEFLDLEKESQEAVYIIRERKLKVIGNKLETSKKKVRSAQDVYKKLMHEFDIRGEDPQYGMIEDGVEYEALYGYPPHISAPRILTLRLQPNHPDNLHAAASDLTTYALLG
T7 sequence 2: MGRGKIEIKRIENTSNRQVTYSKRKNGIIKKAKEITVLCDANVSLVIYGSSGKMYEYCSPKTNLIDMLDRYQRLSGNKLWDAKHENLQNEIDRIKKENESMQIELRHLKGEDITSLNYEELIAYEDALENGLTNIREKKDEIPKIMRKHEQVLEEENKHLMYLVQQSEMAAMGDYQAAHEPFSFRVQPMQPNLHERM

B1: GGLO1 (protein, UniProt Q9ZS26 1-197)
chain: MGRGKIEIKRIENTSNRQVTYSKRKNGIIKKAKEITVLCDANVSLVIYGSSGKMYEYCSPKTNLIDMLDRYQRLSGNKLWDAKHENLQNEIDRIKKENESMQIELRHLKGEDITSLNYEELIAYEDALENGLTNIREKKDEIPKIMRKHEQVLEEENKHLMYLVQQSEMAAMGDYQAAHEPFSFRVQPMQPNLHERM
B2: GSQUA2 (protein, UniProt D2T2G0 1-238)
chain: MGRGRVQLKRIENKISRQVTFSKRRTGLLKKAHEISVLCDADVALIVFSTKGKLFEYSTHSSMDAILERYERYSYAEKLLTAPETETQGSWTLESSKLRAKIEVLEKNIKHYVGEDLEPLNLRELQSVEQQIETALKRVRTRKNQVMHESISELHKKERSLQEQNNTLSKKLKGNQKNTEQQNVGFMFPPQPHHLAHPAIGSGSFEGGGAVREEEYSTQAHPISGTMMPPWLFHHIYQ
B3: GSQUA3 (protein, UniProt D2T2G1 1-248)
chain: MGRGKVQLRRIENKITRQVTFSKRRGGLLKKAHEISVLCDAEVALIVFSNKGKLFEFSTDSCMESILERYERYSYTERQLVSADTAPRSWTLEYNKLKSRAELLQRNHRHYMGEDIESLSLKEIQNLEQQLDTGLKNIRSRKNQLLHESISELQKKGKAIQEQNTTLTKKIKEKEKEKTITQNAQWEHHTFVDHDTTFLMPPPPPTMNIGGTYNQDGGGGVEAVEGRSNELDLSLQPIYSCHLRCFPS
B4: GDEF1 (protein, UniProt Q9ZS28 1-226)
chain: MGRGKIEIKKIENNTNRQVTYSKRRNGIFKKAHELTVLCDAKVSLIMFSNTGKFHEYISPSTTTKKMYDQYQSTVGFDLWSSHYERMKETMKKLKDTNNKLRREIRQRVLGEDFDGLDMNDLTSLEQHMQDSLTLVRERKYHVIKTQTDTCRKRVRNLEQRNGNLRLDYETIHQLDKKYDTGENEGDYESVVAYSNGVSNLYAFCVHPNNIPHGAGYELHDHQHTN
B5: GDEF2 (protein, UniProt Q9ZS27 1-228)
chain: MARGKIQIKKIENSTNRQVTYSKRRNGLFKKASELTVLCDAKVSIIMVSCTDKLHEYISPSITTKQFFDQYQKASGIDLWNSHYEKMQEELRQLKEVNRNLRRQIRQRLGDCLEDLGFEEFLDLEKESQEAVYIIRERKLKVIGNKLETSKKKVRSAQDVYKKLMHEFDIRGEDPQYGMIEDGVEYEALYGYPPHISAPRILTLRLQPNHPDNLHAAASDLTTYALLG

Experiments:
[1] = target: GAGA2 (Gerbera hybrida) (UniProt Q9ZS29); test: two-hybrid; binding domain (pDEST32) and activation domain (pDEST22) fusions combined in both directions by mating PJ69-4A and PJ69-4α; selection on SD -Leu -Trp -Ade and SD -Leu -Trp -His + 1, 5 or 10 mM 3-AT; +22°C for 5 days; positive if either direction grew
[2] = target: GSQUA5 (Gerbera hybrida) (UniProt D2T2G2); test: as above
[3] = target: GSQUA1 (Gerbera hybrida) (UniProt Q9ZS25); test: as above
[4] = target: GRCD2 (Gerbera hybrida) (UniProt Q6EUV7); test: as above
[5] = target: GAGA1 (Gerbera hybrida) (UniProt Q9ZS30); test: as above
[6] = target: T1, GDEF1 (Gerbera hybrida); test: as above
[7] = target: T2, GDEF2 (Gerbera hybrida); test: as above
[8] = target: T3, GGLO1 (Gerbera hybrida); test: as above
[9] = target: T4, GSQUA3 (Gerbera hybrida); test: as above
[10] = target: T5, GSQUA2 (Gerbera hybrida); test: as above
[11] = target: T6, GGLO1/GDEF1 dimer (Gerbera hybrida); test: yeast three-hybrid; third protein expressed unfused from pARC351 beside binding domain (pDEST32) and activation domain (pDEST22) fusions; selection on SD -Leu -Trp -Ura -Ade and SD -Leu -Trp -Ura -His with 1, 5 and 10 mM, or 10 and 25 mM 3-AT; +22°C for 7 days
[12] = target: T7, GGLO1/GDEF2 dimer (Gerbera hybrida); test: as above

Binder | binding [1] | binding [2] | binding [3] | binding [4] | binding [5] | binding [6] | binding [7] | binding [8] | binding [9] | binding [10] | binding [11] | binding [12]
B1 | no binding | no binding | no binding | no binding | no binding | binds | binds | no binding | – | – | – | –
B2 | – | no binding | – | – | – | – | – | – | no binding | no binding | no binding | binds
B3 | – | no binding | – | – | – | – | – | – | no binding | – | no binding | binds
B4 | no binding | no binding | no binding | no binding | no binding | no binding | no binding | – | no binding | no binding | – | –
B5 | no binding | – | – | no binding | no binding | – | no binding | – | no binding | – | – | –
